# This is one part of the list.
# B1: Gal 3C (Homo sapiens), P17931 (protein)
# chain: YGAPAGPLIVPYNLPLPGGVVPRMLITILGTVKPNANRIALDFQRGNDVAFHFNPRFNENNRRVIVCNTKLDNNWGREERQSVFPFESGKPFKIQVLVEPDHFKVAVNDAHLLQYNHRVKKLNEISKLGISGDIDLTSASYTMI
# Assays:
# Test in all cases: glycan array binding signal (z-score within array); higher = stronger binding
# Conditions in all cases: glycan notation: IUPAC condensed, linker removed
# [1] = biological target: GlcNAc(b1-3)Gal(b1-4)GlcNAc(b1-3)Gal(b1-4)GlcNAc(b1-2)Man(a1-3)[GlcNAc(b1-3)Gal(b1-4)GlcNAc(b1-3)Gal(b1-4)GlcNAc(b1-2)Man(a1-6)]Man(b1-4)GlcNAc(b1-4)GlcNAc
# Procedure, shortened: (§1)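 Glycan array data came from 3228 arrays in the Consortium for Functional Glycomics database, and only arrays with an available protein sequence were kept. Glycan names were put into IUPAC-condensed notation, and columns mapping to the same glycan were averaged. The binding signal is a within-array Z-score, averaged across arrays of one protein sequence run at different concentrations or buffers and across linkers. A negative Z-score can be read as non-binding.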
# [2] = biological target: GlcNAc(b1-3)Gal(b1-4)GlcNAc(b1-3)Gal(b1-4)GlcNAc(b1-2)Man(a1-3)[GlcNAc(b1-3)Gal(b1-4)GlcNAc(b1-3)Gal(b1-4)GlcNAc(b1-2)Man(a1-6)]Man(b1-4)GlcNAc(b1-4)[Fuc(a1-6)]GlcNAc
# Procedure, shortened: as §1
# [3] = biological target: GlcNAc(b1-3)Gal(b1-4)GlcNAc(b1-3)Gal(b1-4)GlcNAc(b1-2)[GlcNAc(b1-3)Gal(b1-4)GlcNAc(b1-3)Gal(b1-4)GlcNAc(b1-6)]Man(a1-6)[GlcNAc(b1-3)Gal(b1-4)GlcNAc(b1-3)Gal(b1-4)GlcNAc(b1-2)Man(a1-3)]Man(b1-4)GlcNAc(b1-4)[Fuc(a1-6)]GlcNAc
# Procedure, shortened: as §1
# [4] = biological target: GlcNAc(b1-3)Gal(b1-4)GlcNAc(b1-3)Gal(b1-4)GlcNAc(b1-3)Gal(b1-4)GlcNAc(b1-2)Man(a1-3)[GlcNAc(b1-3)Gal(b1-4)GlcNAc(b1-3)Gal(b1-4)GlcNAc(b1-3)Gal(b1-4)GlcNAc(b1-2)Man(a1-6)]Man(b1-4)GlcNAc(b1-4)GlcNAc
# Procedure, shortened: as §1
# [5] = biological target: GlcNAc(b1-3)Gal(b1-4)GlcNAc(b1-3)Gal(b1-4)GlcNAc(b1-3)Gal(b1-4)GlcNAc(b1-2)Man(a1-3)[GlcNAc(b1-3)Gal(b1-4)GlcNAc(b1-3)Gal(b1-4)GlcNAc(b1-3)Gal(b1-4)GlcNAc(b1-2)Man(a1-6)]Man(b1-4)GlcNAc(b1-4)[Fuc(a1-6)]GlcNAc
# Procedure, shortened: as §1
# [6] = biological target: GlcNAc(b1-3)Gal(b1-4)GlcNAc(b1-3)Gal(b1-4)GlcNAc(b1-3)Gal(b1-4)GlcNAc(b1-2)[GlcNAc(b1-3)Gal(b1-4)GlcNAc(b1-3)Gal(b1-4)GlcNAc(b1-3)Gal(b1-4)GlcNAc(b1-6)]Man(a1-6)[GlcNAc(b1-3)Gal(b1-4)GlcNAc(b1-3)Gal(b1-4)GlcNAc(b1-3)Gal(b1-4)GlcNAc(b1-2)Man(a1-3)]Man(b1-4)GlcNAc(b1-4)[Fuc(a1-6)]GlcNAc
# Procedure, shortened: as §1
# [7] = biological target: GlcNAc(b1-3)Gal(b1-4)GlcNAc(b1-3)Gal(b1-4)GlcNAc(b1-3)Gal(b1-4)GlcNAc(b1-3)Gal(b1-4)GlcNAc(b1-2)Man(a1-3)[GlcNAc(b1-3)Gal(b1-4)GlcNAc(b1-3)Gal(b1-4)GlcNAc(b1-3)Gal(b1-4)GlcNAc(b1-3)Gal(b1-4)GlcNAc(b1-2)Man(a1-6)]Man(b1-4)GlcNAc(b1-4)GlcNAc
# Procedure, shortened: as §1
# [8] = biological target: GlcNAc(b1-3)Gal(b1-4)GlcNAc(b1-3)Gal(b1-4)GlcNAc(b1-3)Gal(b1-4)GlcNAc(b1-3)Gal(b1-4)GlcNAc(b1-2)Man(a1-3)[GlcNAc(b1-3)Gal(b1-4)GlcNAc(b1-3)Gal(b1-4)GlcNAc(b1-3)Gal(b1-4)GlcNAc(b1-3)Gal(b1-4)GlcNAc(b1-2)Man(a1-6)]Man(b1-4)GlcNAc(b1-4)[Fuc(a1-6)]GlcNAc
# Procedure, shortened: as §1
# [9] = biological target: GlcNAc(b1-3)Gal(b1-4)GlcNAc(b1-3)Gal(b1-4)GlcNAc(b1-3)Gal(b1-4)GlcNAc(b1-3)Gal(b1-4)GlcNAc(b1-2)[GlcNAc(b1-3)Gal(b1-4)GlcNAc(b1-3)Gal(b1-4)GlcNAc(b1-3)Gal(b1-4)GlcNAc(b1-3)Gal(b1-4)GlcNAc(b1-6)]Man(a1-6)[GlcNAc(b1-3)Gal(b1-4)GlcNAc(b1-3)Gal(b1-4)GlcNAc(b1-3)Gal(b1-4)GlcNAc(b1-3)Gal(b1-4)GlcNAc(b1-2)Man(a1-3)]Man(b1-4)GlcNAc(b1-4)[Fuc(a1-6)]GlcNAc
# Procedure, shortened: as §1
# [10] = biological target: GlcNAc(b1-3)Gal(b1-4)GlcNAc(b1-3)Gal(b1-4)GlcNAc(b1-3)GalNAc
# Procedure, shortened: as §1
# [11] = biological target: GlcNAc(b1-3)Gal(b1-4)GlcNAc(b1-3)GalNAc
# Procedure, shortened: as §1
# [12] = biological target: GlcNAc(b1-3)Gal(b1-4)GlcNAc(b1-3)[GlcNAc(b1-3)Gal(b1-4)GlcNAc(b1-3)]GalNAc
# Procedure, shortened: as §1
# [13] = biological target: GlcNAc(b1-3)Gal(b1-4)GlcNAc(b1-6)[Gal(b1-3)]GalNAc
# Procedure, shortened: as §1
# [14] = biological target: GlcNAc(b1-3)Gal(b1-4)GlcNAc(b1-6)[GlcNAc(b1-3)Gal(b1-3)]GalNAc
# Procedure, shortened: as §1
# [15] = biological target: GlcNAc(b1-3)Gal(b1-4)GlcNAc(b1-6)[GlcNAc(b1-3)]Gal(b1-4)GlcNAc
# Procedure, shortened: as §1
# GlcNAc(b1-3)GalNAc = biological target: GlcNAc(b1-3)GalNAc
# Procedure, shortened: as §1
# GlcNAc(b1-3)Man = biological target: GlcNAc(b1-3)Man
# Procedure, shortened: as §1
# [16] = biological target: GlcNAc(b1-3)[GlcNAc(b1-4)][GlcNAc(b1-6)]GlcNAc
# Procedure, shortened: as §1
# [17] = biological target: GlcNAc(b1-3)[GlcNAc(b1-6)]Gal(b1-4)GlcNAc
# Procedure, shortened: as §1
# [18] = biological target: GlcNAc(b1-3)[GlcNAc(b1-6)]GalNAc
# Procedure, shortened: as §1
# [19] = biological target: GlcNAc(b1-4)Gal(b1-4)GlcNAc
# Procedure, shortened: as §1
# GlcNAc(b1-4)GlcNAc = biological target: GlcNAc(b1-4)GlcNAc
# Procedure, shortened: as §1
# [20] = biological target: GlcNAc(b1-4)GlcNAc(b1-4)GlcNAc
# Procedure, shortened: as §1
binder,measurement,setting,value
B1,glycan array binding signal (z-score),[1],2.25
same,glycan array binding signal (z-score),[2],3.19
same,glycan array binding signal (z-score),[3],1.81
same,glycan array binding signal (z-score),[4],3.45
same,glycan array binding signal (z-score),[5],3.07
same,glycan array binding signal (z-score),[6],2.76
same,glycan array binding signal (z-score),[7],4.63
same,glycan array binding signal (z-score),[8],4.02
same,glycan array binding signal (z-score),[9],3.79
same,glycan array binding signal (z-score),[10],1.38
same,glycan array binding signal (z-score),[11],-0.286
same,glycan array binding signal (z-score),[12],-0.203
same,glycan array binding signal (z-score),[13],-0.281
same,glycan array binding signal (z-score),[14],-0.317
same,glycan array binding signal (z-score),[15],-0.291
same,glycan array binding signal (z-score),GlcNAc(b1-3)GalNAc,-0.287
same,glycan array binding signal (z-score),GlcNAc(b1-3)Man,-0.287
same,glycan array binding signal (z-score),[16],-0.329
same,glycan array binding signal (z-score),[17],-0.305
same,glycan array binding signal (z-score),[18],-0.331
same,glycan array binding signal (z-score),[19],-0.34
same,glycan array binding signal (z-score),GlcNAc(b1-4)GlcNAc,-0.336
same,glycan array binding signal (z-score),[20],-0.337

# Reference: the supplement of paper PMC8728848
